For this assay, the system named is nude mice, A549 intrarenal xenograft, tumor weight change. The experiment in a line: NCI In Vivo Anticancer Drug Screen. Data for tumor model A549 Human Adenocarcinoma of Lung with characteristics of Type II Alveolar Epithelial cells (intrarenal inoculation) in NU/NU BALB/C (nude) mice. The following applies: endpoint: mean tumor weight change, schedule: Q04DX003 (ip), higher = larger tumour. As for the experimental part: The antitumor activity of compounds was measured in mice bearing transplantable tumors. Survival or tumor size were measured and the results are expressed as the measurement made in the treated group (T) divided by the measurement made in the vehicle treated control group (C). The tumor model used in this assay is A549 Human Adenocarcinoma of Lung with characteristics of Type II Alveolar Epithelial cells (intrarenal inoculation) in NU/NU BALB/C (nude) mice

SMILES strings stand for the structures. Results filed as inconclusive are left out. Certain results were filed several times, with different values. They are shown here; other results are not. An entry can have further records. Values that stand side by side are repeated measurements in other runs, samples, wells, individuals or studies.

With `CCCCCCCCCCCCN1C(C)=CS/C1=C\C=C\c1scc(C)[n+]1CCCCCCCCCCCC`, the T/C (dose: 3.0 mg/kg/injection, vehicle: saline with Tween-80) is 57 % of control and 96 % of control.
In the case of `CCOc1cc2c(cc1C(C)c1ccc(OC)cc1)OCO2` (stereo not drawn), for the setting “dose: 150.0 mg/kg/injection, vehicle: distilled water + alcohol”, the T/C is 10 % of control and 40 % of control.
Turning to `CC(/C=C/C=C/C=C/C=C/C=C/C(O)=C1/C(=O)C(CCC(=O)O)N(C)C1=O)=C\C(C)C(OC1CC(O)C(O)C(C)O1)C(C)C` (stereo not drawn), the T/C (dose: 125.0 mg/kg/injection, vehicle: water) was 13 % of control and 62 % of control.

The values are drawn from PubChem BioAssay AID278 (DTP/NCI, 2004).
